Data on 29 variants can be found in the supplement of paper PMC7125110.

± gives the standard error. Variants at the floor of the assay are shown more often than the library holds them.

Sequences and labels used below:
B1: glmS ribozyme (parent)
chain: AUAAAAGCGCCAGAACUACAGAAAUGUAGUUGACGAGGAGGAGGUUUAUCGAAUUUUCGGCGGAUGCCUCCAAA

Common to all, as to conditions: with glucosamine-6-phosphate
The variants in data set [1] derive from B1. The data set is described as follows: self-cleavage kobs at 640 uM GlcN6P; higher = faster cleavage; RNA array. The gist of the method: (§1)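 Tiles of sequenced MiSeq chips were imaged over ~14 h at 37 °C. On them, barcoded ribozyme variants had been transcribed in situ by E. coli RNA polymerase and were tracked via a hybridised Cy3 probe while glucosamine-6-phosphate (40 μM to 10 mM) in HEPES/KCl/Mg(OAc)2 buffer flowed in. Per-tile medians, normalised to baseline and to non-cleaving reference variants, were fit to one- or two-exponential decays for kobs, and weighted Michaelis–Menten fits gave kcat and KM.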

The variants in data set [2] derive from B1. The data set is described as follows: self-cleavage kobs at 2500 uM GlcN6P; higher = faster cleavage; RNA array. The gist of the method: as §1
In data set [3] the parent is B1. The data set is described as follows: self-cleavage kobs at 10000 uM GlcN6P; higher = faster cleavage; RNA array. The gist of the method: as §1
Data set [4] covers variants of B1. As to the kind of experiment: self-cleavage kobs at 160 uM GlcN6P; higher = faster cleavage; RNA array. In outline: as §1

For G37U U47A U56A C61U, in the data set with glucosamine-6-phosphate [1], the “self-cleavage kobs at 640 uM GlcN6P” value is less than 1e-05 s⁻¹.

Turning to G38A G41C U54G C61A, the “self-cleavage kobs at 640 uM GlcN6P” value with glucosamine-6-phosphate [1] was less than 1e-05 s⁻¹. Moreover, in the data set with glucosamine-6-phosphate [2], the “self-cleavage kobs at 2500 uM GlcN6P” value was less than 1e-05 s⁻¹. As to G37A A42G G43U, in the data set with glucosamine-6-phosphate [1], the “self-cleavage kobs at 640 uM GlcN6P” value is less than 1e-05 s⁻¹. The “self-cleavage kobs at 2500 uM GlcN6P” value with glucosamine-6-phosphate [2] was less than 1e-05 s⁻¹.

Turning to A42U C50U G51C, in the data set with glucosamine-6-phosphate [1], the “self-cleavage kobs at 640 uM GlcN6P” value is less than 1e-05 s⁻¹. In addition, in the data set with glucosamine-6-phosphate [2], the “self-cleavage kobs at 2500 uM GlcN6P” value is less than 1e-05 s⁻¹.

Consider A39U G51C, for which the “self-cleavage kobs at 640 uM GlcN6P” value with glucosamine-6-phosphate [1] is less than 1e-05 s⁻¹. In the data set with glucosamine-6-phosphate [2], the “self-cleavage kobs at 2500 uM GlcN6P” value was less than 1e-05 s⁻¹. For the same variant, the “self-cleavage kobs at 10000 uM GlcN6P” value with glucosamine-6-phosphate [3] was less than 1e-05 s⁻¹. As to G32C A64U, the “self-cleavage kobs at 640 uM GlcN6P” value with glucosamine-6-phosphate [1] was less than 1e-05 s⁻¹. In the data set with glucosamine-6-phosphate [4], the “self-cleavage kobs at 160 uM GlcN6P” value is less than 1e-05 s⁻¹. Besides, the “self-cleavage kobs at 2500 uM GlcN6P” value with glucosamine-6-phosphate [2] was less than 1e-05 s⁻¹. Further, in the data set with glucosamine-6-phosphate [3], the “self-cleavage kobs at 10000 uM GlcN6P” value is less than 1e-05 s⁻¹. Consider U47A C58G, for which the “self-cleavage kobs at 640 uM GlcN6P” value with glucosamine-6-phosphate [1] was 4.54e-05 ± 1.7e-05 s⁻¹. In the data set with glucosamine-6-phosphate [2], the “self-cleavage kobs at 2500 uM GlcN6P” value was 7.52e-05 ± 1.2e-05 s⁻¹. Moreover, the “self-cleavage kobs at 10000 uM GlcN6P” value with glucosamine-6-phosphate [3] worked out at 0.000117 ± 1.5e-05 s⁻¹. For the variant U31A U54A C68A, in the data set with glucosamine-6-phosphate [1], the “self-cleavage kobs at 640 uM GlcN6P” value stood at 6.98e-05 ± 2.6e-05 s⁻¹.

As for C34U A52U G59U, the “self-cleavage kobs at 640 uM GlcN6P” value in the data set with glucosamine-6-phosphate [1] is less than 1e-05 s⁻¹. As to A36U U55C U57A, the “self-cleavage kobs at 640 uM GlcN6P” value in the data set with glucosamine-6-phosphate [1] was less than 1e-05 s⁻¹.

For G43C G63C, the “self-cleavage kobs at 640 uM GlcN6P” value with glucosamine-6-phosphate [1] is less than 1e-05 s⁻¹. For the same variant, the “self-cleavage kobs at 160 uM GlcN6P” value with glucosamine-6-phosphate [4] was less than 1e-05 s⁻¹. The “self-cleavage kobs at 2500 uM GlcN6P” value with glucosamine-6-phosphate [2] is less than 1e-05 s⁻¹. Consider A15U A33G A42G U54A, for which the “self-cleavage kobs at 640 uM GlcN6P” value with glucosamine-6-phosphate [1] is less than 1e-05 s⁻¹. Besides, in the data set with glucosamine-6-phosphate [2], the “self-cleavage kobs at 2500 uM GlcN6P” value was less than 1e-05 s⁻¹. On to A33G A39G G51U C58U, for which the “self-cleavage kobs at 640 uM GlcN6P” value with glucosamine-6-phosphate [1] is less than 1e-05 s⁻¹.

As to G35U G41U U56A, in the data set with glucosamine-6-phosphate [1], the “self-cleavage kobs at 640 uM GlcN6P” value is less than 1e-05 s⁻¹. Also, the “self-cleavage kobs at 160 uM GlcN6P” value in the data set with glucosamine-6-phosphate [4] was less than 1e-05 s⁻¹. In addition, the “self-cleavage kobs at 2500 uM GlcN6P” value with glucosamine-6-phosphate [2] is less than 1e-05 s⁻¹. Further, in the data set with glucosamine-6-phosphate [3], the “self-cleavage kobs at 10000 uM GlcN6P” value was less than 1e-05 s⁻¹. On to G29U A48G, for which the “self-cleavage kobs at 640 uM GlcN6P” value in the data set with glucosamine-6-phosphate [1] is less than 1e-05 s⁻¹.

In the case of A15G G35U U45C, in the data set with glucosamine-6-phosphate [1], the “self-cleavage kobs at 640 uM GlcN6P” value was less than 1e-05 s⁻¹. Also, the “self-cleavage kobs at 160 uM GlcN6P” value in the data set with glucosamine-6-phosphate [4] is less than 1e-05 s⁻¹. Also, the “self-cleavage kobs at 2500 uM GlcN6P” value in the data set with glucosamine-6-phosphate [2] was less than 1e-05 s⁻¹. With A33G G44U G62C, the “self-cleavage kobs at 640 uM GlcN6P” value with glucosamine-6-phosphate [1] was less than 1e-05 s⁻¹. Besides, the “self-cleavage kobs at 160 uM GlcN6P” value in the data set with glucosamine-6-phosphate [4] is less than 1e-05 s⁻¹. Further, in the data set with glucosamine-6-phosphate [2], the “self-cleavage kobs at 2500 uM GlcN6P” value was less than 1e-05 s⁻¹. With A42U U47G G63A G66U, in the data set with glucosamine-6-phosphate [1], the “self-cleavage kobs at 640 uM GlcN6P” value was less than 1e-05 s⁻¹. Same read-out and setting: for U31A C61U C70G the value was less than 1e-05 s⁻¹. For the variant G35C A39C U57C, the “self-cleavage kobs at 640 uM GlcN6P” value with glucosamine-6-phosphate [1] was less than 1e-05 s⁻¹. In addition, the “self-cleavage kobs at 2500 uM GlcN6P” value with glucosamine-6-phosphate [2] was less than 1e-05 s⁻¹. In the case of G32A G44U A48U C70G, in the data set with glucosamine-6-phosphate [1], the “self-cleavage kobs at 640 uM GlcN6P” value was less than 1e-05 s⁻¹. For the same variant, the “self-cleavage kobs at 2500 uM GlcN6P” value with glucosamine-6-phosphate [2] was less than 1e-05 s⁻¹. As to G32C, the “self-cleavage kobs at 640 uM GlcN6P” value with glucosamine-6-phosphate [1] was 2.26e-05 ± 1.4e-06 s⁻¹. Further, the “self-cleavage kobs at 2500 uM GlcN6P” value in the data set with glucosamine-6-phosphate [2] was 5.77e-05 ± 1.3e-06 s⁻¹. For the same variant, the “self-cleavage kobs at 10000 uM GlcN6P” value in the data set with glucosamine-6-phosphate [3] worked out at 0.000103 ± 1.4e-06 s⁻¹. As to G29C C68G, the “self-cleavage kobs at 640 uM GlcN6P” value with glucosamine-6-phosphate [1] was 5.49e-05 ± 1.9e-05 s⁻¹. For A36U G60C, the “self-cleavage kobs at 640 uM GlcN6P” value in the data set with glucosamine-6-phosphate [1] was less than 1e-05 s⁻¹. In the data set with glucosamine-6-phosphate [4], the “self-cleavage kobs at 160 uM GlcN6P” value was less than 1e-05 s⁻¹. Further, in the data set with glucosamine-6-phosphate [2], the “self-cleavage kobs at 2500 uM GlcN6P” value was less than 1e-05 s⁻¹. The “self-cleavage kobs at 10000 uM GlcN6P” value in the data set with glucosamine-6-phosphate [3] is less than 1e-05 s⁻¹.

G29U U49G G63C: in the data set with glucosamine-6-phosphate [1], the “self-cleavage kobs at 640 uM GlcN6P” value was less than 1e-05 s⁻¹. Regarding A42G U55G A64G C71G, the “self-cleavage kobs at 640 uM GlcN6P” value with glucosamine-6-phosphate [1] turned out to be 0.000116 ± 3.7e-05 s⁻¹. Moreover, the “self-cleavage kobs at 2500 uM GlcN6P” value with glucosamine-6-phosphate [2] was 5.98e-05 ± 2e-05 s⁻¹. As to U31C U49A, in the data set with glucosamine-6-phosphate [1], the “self-cleavage kobs at 640 uM GlcN6P” value is less than 1e-05 s⁻¹.

Regarding A33U G60C A64U, in the data set with glucosamine-6-phosphate [1], the “self-cleavage kobs at 640 uM GlcN6P” value was less than 1e-05 s⁻¹.

Consider C34U U49A U55G C61U C68G, for which the “self-cleavage kobs at 640 uM GlcN6P” value in the data set with glucosamine-6-phosphate [1] worked out at 0.000585 ± 0.00016 s⁻¹.
